Hit rate of the full screen: of about 120,000 compounds, about 5,300 (4.4%) were called active. Inconclusive results, whose numbers are uncertain, are shown with a selection of clear calls. The call rests on the fitted dose curve; in most records, active means well fitted inhibition curve with a large enough effect; inconclusive means small, poorly fitted or top-dose-only effect; inactive means no such curve, though single readings can be large or run the other way. Potencies beside an inconclusive call are fits to weak or partial responses and may not hold up.
Assay: qHTS Primary assay for Inhibitors of Plasmodium falciparum Dd2 growth in vitro; further: nearly all actives have a fitted effect of over 65% in size;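 on activity, negative = inhibition: plate controls were DMSO vehicle for no effect and reference drug for full effect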
Settings: P. falciparum Dd2 growth, SYBR Green, 72 h; activity, negative = inhibition: at 28.9 µM (top of the series) unless noted; series mostly up to 28.9 µM
How it was run: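 Readout: SYBR Green fluorescence, 485 nm excitation, 535 nm emission, after ~16 h lysis at 37C. Before that, Dd2-infected red cells (2.5% hematocrit) grew 72 h with compound, 29 uM top final concentration.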
In the case of CC(C)(C)c1ccc(-c2nc(SCCCOc3ccccc3)n3[nH]c(=O)cc3n2)cc1, the Potency is reported as active: 10 µM. For CCC1=C(C(=O)OC)C(c2ccccc2OC)N2C(CC(=O)N3CCCC3)=CSC2=N1 (configuration not stated), the Potency was inconclusive: 3.98 µM [inhibitor, partial curve, poor fit]. With CC(=O)N(C)Cc1ccc(F)cc1 the Potency was inconclusive: 39.8 µM [inhibitor, single point]. For COc1cccc(C(=O)N2CCC(N(C(=O)C3CC3)C3CCOCC3)CC2)c1, the Potency was inconclusive: 6.31 µM [inhibitor, partial curve]. For CC(C)c1cc(-c2nc(-c3ccccc3)no2)n[nH]1, the Potency was inconclusive: 17.8 µM [inhibitor, single point]. In the case of O=C(Cc1ccc(Cl)cc1)N1CCC2(CC1)NC(=O)N(c1cccc(F)c1)N2, the Potency is reported as inconclusive: 11.2 µM [inhibitor, single point]. In the case of O=C1CC(c2ccccc2)N(C(=O)CNC(=O)NCc2ccc(F)cc2)CCCCCN1 (configuration not stated), the Potency is reported as “inactive”. With O=C(NCC1CC1)c1cccc(OC2CN(Cc3cncs3)C2)c1 the Potency was inconclusive: 14.1 µM [inhibitor, partial curve, poor fit]. In the case of O=C(CSc1nc(-c2ccccc2)[nH]c1-c1ccccc1)Nc1ccc2c(c1)OCCO2, the Potency is reported as inconclusive: 11.2 µM [inhibitor, single point]. In the case of COCCNC(=O)C1CCc2sc(C(=O)N(C)C)cc2C1 (configuration not stated), the Potency is reported as inconclusive: 1.12 µM [inhibitor, partial curve, poor fit]. In the case of CC(C)CC(=O)N1CCC(N2C(=O)C3(CCCC3)C2c2ccccc2)CC1 (configuration not stated), the Potency is reported as inconclusive: 20 µM [inhibitor, single point]. In the case of O=C(Nc1cc(Cl)cc(Cl)c1)N1CCCC1c1nncn1C1CCCC1 (configuration not stated), the Potency is reported as active: 11.2 µM. In the case of CNC(=O)[C@@H]1CN(Cc2ccc(Cl)cc2F)C[C@H]1CO, the Potency is reported as inconclusive: 2.82 µM [inhibitor, single point]. For CCOc1ccc2c(n1)CCN(C(=O)Nc1ccccc1OCC)C2, the Potency was inconclusive: 7.94 µM [inhibitor, partial curve, poor fit]. In the case of CCC(=O)Nc1ccc2nc(SCc3ccc(C)cc3)sc2c1, the Potency is reported as inconclusive: 20 µM [inhibitor, single point]. With Cc1nc(N2CCCC2)c2c(C(=O)N3CCN(c4cccc(C)c4C)CC3)c(C)oc2n1 the Potency was inconclusive: 17.8 µM [inhibitor, single point]. With CC(=O)c1cccc(C(=O)N2CCC3(CC2)N=C(c2ccc(C)cc2)NO3)c1 the Potency was inconclusive: 2.82 µM [inhibitor, single point]. In the case of Cc1ccccc1-c1nnc(C2CCN(S(=O)(=O)c3ccc(Cl)cc3)CC2)o1, the Potency is reported as inconclusive: 17.8 µM [inhibitor, single point]. For CCOc1cc(C2CC(=O)Nc3nc(SCc4ccccc4)[nH]c(=O)c32)ccc1O (configuration not stated), the Potency was inconclusive: 15.8 µM [inhibitor, partial curve, poor fit]. For COCc1ccc2c(c1)c(OC(C)(C)C(=O)NCCCn1ccnc1)nn2CCC(C)C, the Potency was inconclusive: 3.55 µM [inhibitor, partial curve]. With CCOC(=O)c1ccc(N2C(=O)c3[nH]nc(-c4ccc(OCC)cc4)c3C2c2ccc(OC)cc2OC)cc1 (configuration not stated) the Potency was active: 7.94 µM. In the case of CNC(=O)[C@@H]1CN(C(=O)c2ccncn2)C[C@H]1c1n[nH]c(C)n1, the Potency is reported as “inactive”. In the case of O=C(Cc1ccccc1)N(Cc1cccnc1)c1nc2ccc(F)cc2s1, the Potency is reported as inconclusive: 17.8 µM [inhibitor, single point]. With O=C(O)CCCC(=O)N[C@H]1CO[C@H]2[C@@H]1OC[C@@H]2Nc1nccc(-c2cccc(F)c2)n1 the Potency was inconclusive: 10 µM [inhibitor, single point]. In the case of COCCN[C@H]1[C@@H]2OC[C@@H](O2)[C@@H](NCc2ccc3c(c2)OCO3)[C@@H]1O, the Potency is reported as “inactive”. For COc1ccc(-c2nc(C(=O)NCc3cccnc3)n3ccccc23)cc1, the Potency was inconclusive: 11.2 µM [inhibitor, single point]. With COCc1cccc(-c2n[nH]c3c2CC(=O)N(CC2CCOCC2)C3)c1 the Potency was inconclusive: 12.6 µM [inhibitor, single point]. With c1ccc(-c2cc(CC3(NCc4cnc5ccccc5c4)COC3)no2)nc1 the Potency was inconclusive: 10 µM [inhibitor, single point]. In the case of COc1ccc(CNCc2c(C(=O)O)c(C)n(Cc3ccc(Cl)cc3)c2C)c(OC)c1, the Potency is reported as inconclusive: 11.2 µM [inhibitor, partial curve, poor fit]. With COc1ccc(Cl)cc1S(=O)(=O)N1CCCC(Cn2c(C)nc3cccnc32)C1 (configuration not stated) the Potency was inconclusive: 10 µM [inhibitor, single point]. With O=C(Nc1ccc(F)c(F)c1)c1ccc(Cn2ccn3nc4c(c3c2=O)CCCC4)cc1 the Potency was inconclusive: 10 µM [inhibitor, single point]. For Cc1cn(CCNC(=O)c2cn(C3CCC(N)CC3)nn2)nn1 (configuration not stated), the Potency was “inactive”. In the case of CCN(Cc1cnn(CC)c1)C(=O)c1c(C)oc2c1CN(Cc1ccc(F)cc1)CC2, the Potency is reported as inconclusive: 11.2 µM [inhibitor, single point]. For O=C(NCc1ccccc1)C1CCC(=O)N1C1CCN(C(=O)c2ccc(F)cc2F)CC1 (configuration not stated), the Potency was “inactive”. With COc1cccc(CNC(=O)N2c3ccccc3CC2c2noc(C3CCOCC3)n2)c1 (configuration not stated) the Potency was inconclusive: 17.8 µM [inhibitor, single point]. In the case of c1ccc(CN2CCC(Oc3nccnc3N3CCc4ccccc43)C2)nc1 (configuration not stated), the Potency is reported as active: 3.98 µM. In the case of COc1ccc(-c2ccc3c(c2)C(=O)N2CCN(C(=O)c4cccnc4)C[C@@H]2C(=O)N3)c(OC)c1, the Potency is reported as inconclusive: 12.6 µM [inhibitor, partial curve, poor fit]. In the case of Cc1nn(CC(=O)NCCc2ccccc2Cl)c(=O)c2nn(-c3ccccc3)c(C)c12, the Potency is reported as inconclusive: 5.01 µM [inhibitor, partial curve]. In the case of CNC(=O)C1CCN(C(=O)c2coc(COc3ccc4ccc(OC)cc4c3)n2)C1 (configuration not stated), the Potency is reported as inconclusive: 10 µM [inhibitor, single point]. For CC(C)(C)c1ccc(S(=O)(=O)NCc2nc3cccnc3n2Cc2ccccc2Cl)cc1, the Potency was inconclusive: 11.2 µM [inhibitor, single point]. With CCCS(=O)(=O)Nc1ccc(=O)n2c1[C@@H]1C[C@@H](CN(S(=O)(=O)c3ccccc3)C1)C2 the Potency was inconclusive: 7.94 µM [inhibitor, partial curve, poor fit]. With Cc1cc(OC2CN([S+](=O)([O-])c3cccs3)C2)ccc1F the Potency was inconclusive: 1.41 µM [inhibitor, partial curve]. For CC(C)C(=O)NCC1CN(Cc2ccccc2)C(=O)c2c(ccnc2-c2ccc(OCC(=O)O)cc2)O1 (configuration not stated), the Potency was active: 1.12 µM. In the case of O=C1[C@@H]2C[C@@H](CN2C(=O)c2cncnc2)Oc2ccccc2N1Cc1ccc(OC(F)(F)F)cc1, the Potency is reported as inconclusive: 10 µM [inhibitor, single point]. In the case of CO[C@H]1C(=O)N(C2CCN(C(=O)c3ccncc3)CC2)[C@H]1c1ccncc1, the Potency is reported as “inactive”. For COC(=O)c1cnn(-c2ccc(C(=O)Nc3ccc(C(C)=O)cc3)cc2)c1N, the Potency was inconclusive: 2.24 µM [inhibitor, full curve]. With COC[C@H]1CCCN1C[C@@H]1C=C(C)[C@H](Cc2nnc(-c3cccnc3)o2)C[C@H]1C(C)C the Potency was inconclusive: 5.62 µM [inhibitor, single point]. In the case of CC(C)c1cnc(-c2ccccc2)[nH]1, the Potency is reported as inconclusive: 20 µM [inhibitor, partial curve, poor fit]. In the case of CN1CC(=O)N(C2CCCNCC2)Cc2c1ncnc2N1CCc2ccccc2C1 (configuration not stated), the activity, negative = inhibition is reported as inconclusive: -52.2% [inhibitor]. With Cc1ccc(Cc2nc3ccccc3nc2SCC(=O)Nc2cccc(C(F)(F)F)c2)cc1 the Potency was inconclusive: 17.8 µM [inhibitor, single point]. For CCOc1ccccc1-c1noc(-c2nnn3c2COC(c2ccc(OC)cc2)C3)n1 (configuration not stated), the Potency was “inactive”. With CCCC(=O)N1CC2(CCCN2Cc2cccnc2)Cc2ccccc21 (configuration not stated) the Potency was inconclusive: 14.1 µM [inhibitor, single point]. For O=C(CN1CCCc2nc(-c3ccncc3)ncc2C1=O)N1CCc2ccccc2C1, the Potency was inconclusive: 10 µM [inhibitor, single point]. With COc1ccc(Nc2cc(C)nc(-n3nc(C)cc3C)n2)cc1Cl the Potency was active: 3.55 µM. For COc1ccc(CCNC(=O)CCc2c(C)nc3c(c(C)nn3-c3ccc(C)cc3)c2C)c(OC)c1, the Potency was inconclusive: 5.01 µM [inhibitor, partial curve, poor fit]. For CCc1ccccc1NC(=O)C1CCCN(S(=O)(=O)c2cccc3nsnc23)C1 (configuration not stated), the Potency was “inactive”. In the case of COc1ccc(NS(=O)(=O)c2ccc(NC(=O)N3CCCC3)cc2)cc1, the Potency is reported as “inactive”. In the case of O=C(c1ccccc1F)N1CCCn2cc(-c3ccccc3F)nc21, the Potency is reported as inconclusive: 7.94 µM [inhibitor, partial curve]. For COc1ccc(NC(C)=O)cc1NC(=O)c1cccn(Cc2ccccc2)c1=O, the Potency was inconclusive: 12.6 µM [inhibitor, single point]. With COc1ccc(C2Cn3nnc(C(=O)N4CCN(C(=O)c5cccc(C)c5)CC4)c3CO2)cc1 (configuration not stated) the Potency was inconclusive: 7.94 µM [inhibitor, single point]. For Cc1cccc(CN2CCCC3(Cc4ccccc4CNC3=O)C2)n1 (configuration not stated), the Potency was inconclusive: 8.91 µM [inhibitor, partial curve, poor fit]. For COc1ccc(NC(=O)CN2CCCc3nc(C4CC4)ncc3C2=O)cn1, the Potency was inconclusive: 20 µM [inhibitor, partial curve, poor fit].

Reference: PubChem BioAssay AID1347417 (National Center for Advancing Translational Sciences (NCATS), 2020)
Potency means the concentration at half of the fitted maximal effect; tags describe the fitted curve by direction and shape.
